In PubChem BioAssay AID1347073 (National Center for Advancing Translational Sciences (NCATS), 2019):
The campaign covered roughly 45,000 compounds. About 200 (0.44%) were called active. The inconclusive results got no clear call from the source; some entries with a clear call stand among them for comparison. Calls follow the shape of the dose curve; as a rule, active = well fitted activation curve with a large enough effect; inconclusive = small, poorly fitted or top-dose-only effect; inactive = no such curve, though single readings can be large or run the other way. Potencies beside an inconclusive call are fits to weak or partial responses and may not hold up.

test: qHTS of TDP-43 Inhibitors: NCGC Sytravon Library Screen; conditions: yeast TDP-43 toxicity rescue, BacTiter-Glo growth, 24 h; growth rescue (activation): at 46.1 µM (top of the series); also: nearly all actives have a fitted effect of over 55% in size; as to growth rescue (activation): 0% is about no effect
Outline: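 TDP-43-expressing yeast, pregrown in raffinose, seeded at OD600 0.02 in galactose medium with compound for 24 hr at 30 deg C. Growth read by BacTiter-Glo luminescence, so rescue of toxicity appears as activation.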
Potency is read from the fitted curve at half-maximal effect; tags tell the direction and shape of the fitted curve.

Structure (SMILES)	Potency	growth rescue (activation)
COc1ccccc1N1CCN(C(=O)/C=C/c2ccco2)CC1	inconclusive: 17.8 µM [activator, partial curve, poor fit]	
O=C(NCCc1ccccc1)C1Cc2c(-c3ccc(Cl)cc3)ccnc2O1 (stereo not given)	inconclusive: 22.4 µM [activator, single point]	
CCC(=O)c1ccc(OCc2ccc(C(=O)OC)o2)c(OC)c1	inconclusive: 11.2 µM [activator, single point]	
O=C1C2C3C=CC(C3=C3CCCCC3)C2C(=O)N1c1ccccc1 (stereo not given)	inconclusive: 20 µM [activator, partial curve, poor fit]	
O=C(CCCn1c(=O)c2cccn2c2ccccc21)Nc1cccc(Cl)c1	inactive	
Cc1[nH]c2ccc(OC(F)(F)F)cc2c1CCN1C(=O)c2ccc(C(=O)O)cc2C1=O	inconclusive: 20 µM [activator, partial curve, poor fit]	
COc1ccccc1Nc1nnc(SCc2cc(=O)n3cc(C)ccc3n2)s1	inconclusive: 17.8 µM [activator, partial curve, poor fit]	
Cc1cc(C)n(-c2nnc(N3CCN(c4ccccc4)CC3)nn2)n1	inconclusive: 14.1 µM [activator, single point]	
CCCCn1c(O)c(N=NC(=O)c2ccco2)c2ccccc21	inconclusive: 31.6 µM [activator, single point]	
Cc1ccc(-n2c(C)cc(C(=O)NS(=O)(=O)c3ccc(C)cc3)c2C)cc1	inconclusive: 35.5 µM [activator, single point]	
FC(F)Oc1ccc(NC(=S)Nc2ccc3cn[nH]c3c2)cc1	inconclusive: 35.5 µM [activator, single point]	
O=C(CSc1nc2scc(-c3ccccc3)c2c(=O)[nH]1)N1CCOCC1	inactive	
CC(=O)NC(c1ccc(F)c(F)c1)c1nc(-c2cnc3ccccc3c2)cs1 (stereo not given)	inactive	
O=C(c1ccc2ccccc2n1)N1CCN(c2ccccc2Cl)CC1	inconclusive: 17.8 µM [activator, partial curve, poor fit]	
CCn1c(CCCOc2ccc(Cl)cc2Cl)nnc1SCC(=O)Nc1cc(F)ccc1C	inconclusive: 22.4 µM [activator, single point]	
O=C(CNCc1ccc(Cl)cc1)Nc1ccc(C(=O)N2CCCCCC2)cc1	inactive	
COc1cc(C2CC(c3cccs3)=NN2C(=O)CCl)ccc1OC(F)F (stereo not given)	inconclusive: 3.55 µM [activator, partial curve, poor fit]	
CCn1nc(C(=O)NNS(=O)(=O)c2ccc(C)cc2)c2ccccc2c1=O	inactive	
COc1ccc(C)cc1NC(=O)CSc1ccc(Cl)cc1	inconclusive: 11.2 µM [activator, partial curve]	
Cc1ccccc1Nc1nc(N)nc(COC(=O)CC2CC3CCC2C3)n1 (stereo not given)	inconclusive: 35.5 µM [activator, single point]	
O=C1OC(Nc2nc(-c3ccc(F)cc3)cs2)c2ccccc21 (stereo not given)	inactive	
O=C(NC(=S)NNC(=O)c1ccccc1O)c1cccnc1	inactive	
Oc1cccc(NC(=S)N=Nc2c(O)[nH]c3ccc(Br)cc23)c1	inconclusive: 12.6 µM [activator, single point]	
Cc1ccc(C2=NN(C(=O)CCl)C(c3ccco3)C2)o1 (stereo not given)	inconclusive: 35.5 µM [activator, single point]	

Structure (SMILES)	Potency	growth rescue (activation)
CCc1cccc(NC(=O)CN(C)S(=O)(=O)c2cccc3cccnc23)c1	inconclusive: 35.5 µM [activator, single point]	
CCOc1ccccc1N1CCN(C(=O)c2ccc3[nH]c4c(c3c2)CCCC4)CC1	inconclusive: 20 µM [activator, single point]	
Cc1ccccc1Nc1nnc(SCC2CCCCO2)s1 (stereo not given)	inconclusive: 14.1 µM [activator, partial curve, poor fit]	
OC(c1ccc2ccccc2c1)c1ncc(-c2ccc(C(F)(F)F)cc2)[nH]1 (stereo not given)		inconclusive: -89.8% [activator]
OC[C@@H]1CN(CCNc2ccccc2)C[C@H](n2cnc3c(NCc4ccncc4)ncnc32)O1	inactive	
CC(=O)Nc1ccc(C(=O)OCc2ccccc2Br)cc1	inconclusive: 11.2 µM [activator, single point]	
Cc1cc(C)c(NS(=O)(=O)c2ccc3c(c2)NC(=O)CC(=O)N3)c(C)c1	inactive	
Cc1cc(C)cc(NS(=O)(=O)c2ccc(F)cc2)c1	inconclusive: 35.5 µM [activator, single point]	
O=C(/C=C/c1ccc2c(c1)OCO2)NCCSCc1ccc(Cl)cc1Cl	inconclusive: 35.5 µM [activator, single point]	
Cc1cc(C)n2nc(N)c(N=Nc3ccccc3)c2n1	inconclusive: 10 µM [activator, partial curve, poor fit]	
COCCN1Cc2cccc(C(=O)Nc3cccc(-c4nc5ccccc5[nH]4)c3)c2C1=O	inconclusive: 35.5 µM [activator, partial curve, poor fit]	
Cc1ccc(C2CCN(C(=S)NC3CCCCC3)C2)cc1 (stereo not given)	inconclusive: 17.8 µM [activator, single point]	
CC(=O)NCc1ccc(C(=O)CN2C(=O)NC3(CCCCC3C)C2=O)s1 (stereo not given)	inactive	
Cc1ccnc(NC(=O)c2cccc([N+](=O)[O-])c2C)c1	inconclusive: 15.8 µM [activator, single point]	
COc1ccc(C(=O)n2ncc(C#N)c2N)cc1	inconclusive: 22.4 µM [activator, single point]	
CC(C)CCNC(=O)CCCCn1c(=O)[nH]c2ccsc2c1=O	inactive	
COc1ccc(NC(=O)c2cc(-c3cc(F)ccc3OCC3CCCO3)n[nH]2)c(C)c1 (stereo not given)		inconclusive: 56.5% [activator]
COCCNc1ncnc2c1ncn2[C@H]1CN(Cc2ccncc2)C[C@@H](CO)O1	inactive	
COc1ccc(CNC(=O)CSCc2ccccc2Cl)cc1	inconclusive: 11.2 µM [activator, single point]	
CCn1cc(C(=O)O)c(=O)c2cc(F)c(N3CCN(C(=S)NC(=O)c4cccc(F)c4)CC3)cc21	inconclusive: 35.5 µM [activator, single point]	
Cc1cc(C)cc(-n2c(SC(C)C(=O)NCc3ccc4c(c3)OCO4)nc3ccccc3c2=O)c1 (stereo not given)	inconclusive: 14.1 µM [activator, single point]	
O=C(COc1ccc2c(c1)CCC2)NCc1cccc(Cl)c1	inconclusive: 14.1 µM [activator, partial curve, poor fit]	
Cc1ccc(O)c(C2=NOC(O)(C(F)(F)F)C2)c1 (stereo not given)	inconclusive: 10 µM [activator, partial curve]	
O=C1NC(=S)S/C1=C\c1cc2ccccc2nc1N1CCCCC1	active: 6.31 µM	

Structure (SMILES)	Potency	growth rescue (activation)
O=C(NCC(=O)N1CCN(c2ncccn2)CC1)c1ccccc1OC(F)F	inactive	
S=C(Nc1ccccc1Cl)NC1CCCCCC1	inconclusive: 17.8 µM [activator, single point]	
CCOc1ccccc1C(=O)N(Cc1ccc(N(C)C)cc1)Cc1ccco1	inactive	
CCN(CC)CCn1c(=N)n(CC(O)COc2ccccc2C)c2ccccc21 (stereo not given)	inactive	
CCNC(=O)C1(C)CCN(Cc2csc(-c3ccccc3)n2)C1 (stereo not given)	inactive	
O=C(CN1CCC(O)(c2cccc(C(F)(F)F)c2)CC1)NCCc1ccccc1	inactive	
O=C(CCl)N=c1sccn1Cc1ccc(Cl)cc1Cl	active: 20 µM	
O=C(N=C1N=C2C=CC(Br)=CN2Cc2ccccc21)c1ccc([N+](=O)[O-])cc1[N+](=O)[O-]	inconclusive: 1.78 µM [activator, full curve]	
COc1ccc(-c2cn[nH]c2-c2ccc(OCc3ccc(F)cc3)cc2O)cc1OC	inconclusive: 17.8 µM [activator, single point]	
CCOc1ccccc1NC(=O)C1(S(=O)(=O)c2ccc(Cl)cc2)CC1	inactive	
COc1ccccc1C(=O)C1CCCN(C(=O)CCC(=O)c2ccccc2)C1 (stereo not given)	inconclusive: 35.5 µM [activator, single point]	
COc1ccc(Br)c2c1-c1nc(NC(=O)c3ccccc3SC)sc1C2	inactive	
Cc1ccc(-c2nc3c4cnn(-c5cc(Cl)ccc5Cl)c4ncn3n2)cc1	inactive	
COc1ccccc1N1CCN(C(=O)COc2cc(C)ccc2C)CC1	inconclusive: 12.6 µM [activator, partial curve, poor fit]	
CN(C(=O)c1cc2c(=O)n3ccccc3nc2n1C)C1CCCCC1	inconclusive: 7.08 µM [activator, partial curve, poor fit]	
O=S(=O)(N/N=C1/CC(c2ccccc2)Oc2ccccc21)c1ccccc1 (stereo not given)	inconclusive: 17.8 µM [activator, partial curve, poor fit]	
CCc1ccc(CNC(=O)CSCc2cnn(-c3ccccc3)c2-n2cccc2)cc1	inactive	
COc1cccc(C(C)(O)c2nc(-c3cc4ccccc4o3)cs2)c1 (stereo not given)		inconclusive: 89.1% [activator]
CSc1ccc(CNC(=O)C2CCN(c3nnc(-n4cccc4CNc4ccc(C)cc4)s3)CC2)cc1	inactive	
COc1ccccc1/C=C(/CC(=O)NCc1ccc(F)cc1)c1nc2ccccc2s1	inconclusive: 3.16 µM [activator, partial curve, poor fit]	
COc1cc(C)nc(Oc2ccc(/C=N/O)cc2)n1	inconclusive: 10 µM [activator, partial curve]	
CCOC(=O)C(C)(C)N(Cc1cccc(C)c1)S(=O)(=O)c1cccc([N+](=O)[O-])c1	inconclusive: 17.8 µM [activator, partial curve, poor fit]	
